Data published in a compilation of properties of binary mixtures (doi:10.1007/s10973-018-7399-0).
The densities may have been worked out from excess volumes.

Assay: xn = mol fraction of the nth substance listed
Conditions: 93.2 kPa

CC(=O)[O-].CCCC[NH3+] + CCO
mass density [kg/m3]
Conditions | 293.15 K | 298.15 K | 303.15 K | 308.15 K | 313.15 K
x1 = 0.0501 | 813.3 | 809.1 | – | 800.8 | –
x1 = 0.0992 | 832.1 | 828.1 | 824.1 | 820 | 816
x1 = 0.15 | – | 844.6 | 840.7 | 836.8 | –
x1 = 0.2001 | – | 858.6 | 854.8 | 851 | –
x1 = 0.2511 | 874.7 | 871 | 867.3 | 863.5 | 859.8
x1 = 0.3001 | – | 881.5 | 877.9 | 874.2 | –
x1 = 0.35 | 894.7 | 891.1 | 887.5 | – | 880.3
x1 = 0.3999 | 903.2 | – | 896.2 | – | 889.1
x1 = 0.4483 | 910.6 | 907.1 | 903.6 | 900.1 | –
x1 = 0.4987 | – | 914.1 | 910.7 | 907.2 | 903.8
x1 = 0.5503 | 924.1 | – | 917.2 | 913.8 | 910.4
x1 = 0.6002 | 929.8 | – | 923 | 919.7 | 916.3
x1 = 0.6511 | 935.2 | 931.9 | 928.5 | 925.1 | –
x1 = 0.7008 | – | – | 933.4 | 930.1 | 926.8
x1 = 0.7495 | – | – | 937.9 | 934.6 | 931.3
x1 = 0.7988 | – | 945.4 | 942.1 | 938.9 | 935.6
x1 = 0.8496 | – | – | 946.1 | – | 939.6
x1 = 0.9015 | 956.3 | 953.1 | 949.9 | 946.7 | 943.5
x1 = 0.9493 | 959.6 | 956.4 | 953.2 | 950 | –
x1 = 1 | 962.9 | 959.7 | – | 953.3 | 950.2
